Measured values from publication PMC4336329 (PLoS ONE, 2015).
Out of some 310,000 compounds screened, about 14,000 (4.5%) showed an effect of 50% or more. The effect is printed as a negative number. Some of the results follow.

Target: human ether-à-go-go-related gene (hERG) potassium channel (human, UniProt Q12809)
Test: primary screen, population patch clamp on CHO cells stably expressing hERG
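Also: peak tail current of the secondary pulse compared with the same well before compound.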

Chain of human ether-à-go-go-related gene (hERG) potassium channel (Q12809 whole entry, looked up): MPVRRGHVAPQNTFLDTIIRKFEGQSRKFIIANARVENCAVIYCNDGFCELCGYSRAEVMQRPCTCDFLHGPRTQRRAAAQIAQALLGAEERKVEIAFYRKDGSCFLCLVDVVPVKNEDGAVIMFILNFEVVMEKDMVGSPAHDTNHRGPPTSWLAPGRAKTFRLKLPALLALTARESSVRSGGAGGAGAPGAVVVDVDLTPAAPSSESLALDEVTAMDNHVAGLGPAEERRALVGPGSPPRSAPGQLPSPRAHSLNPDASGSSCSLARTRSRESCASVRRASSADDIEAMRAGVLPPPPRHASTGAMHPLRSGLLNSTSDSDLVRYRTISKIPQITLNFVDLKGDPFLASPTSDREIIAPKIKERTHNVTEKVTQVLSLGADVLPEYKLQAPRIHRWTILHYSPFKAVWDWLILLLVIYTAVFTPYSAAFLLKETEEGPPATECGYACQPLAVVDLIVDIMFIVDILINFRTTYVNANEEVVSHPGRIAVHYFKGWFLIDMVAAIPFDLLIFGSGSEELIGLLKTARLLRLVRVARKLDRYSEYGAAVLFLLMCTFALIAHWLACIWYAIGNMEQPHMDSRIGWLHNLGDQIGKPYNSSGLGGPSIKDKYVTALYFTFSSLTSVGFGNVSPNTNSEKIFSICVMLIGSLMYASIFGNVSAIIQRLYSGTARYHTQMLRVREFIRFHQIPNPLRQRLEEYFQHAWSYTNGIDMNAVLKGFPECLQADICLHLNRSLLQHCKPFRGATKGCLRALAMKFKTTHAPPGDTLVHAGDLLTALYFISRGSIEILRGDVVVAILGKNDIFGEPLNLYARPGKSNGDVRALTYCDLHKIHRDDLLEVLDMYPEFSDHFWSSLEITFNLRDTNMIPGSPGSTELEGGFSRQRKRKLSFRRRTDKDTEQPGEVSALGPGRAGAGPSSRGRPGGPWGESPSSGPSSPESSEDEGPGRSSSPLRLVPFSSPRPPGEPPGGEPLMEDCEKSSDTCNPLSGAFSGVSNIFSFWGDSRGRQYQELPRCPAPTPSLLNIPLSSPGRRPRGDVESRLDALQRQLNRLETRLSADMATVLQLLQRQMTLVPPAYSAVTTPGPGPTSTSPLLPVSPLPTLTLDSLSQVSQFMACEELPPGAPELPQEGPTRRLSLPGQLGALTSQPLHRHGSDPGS

Compound | hERG current change (%, negative = inhibition) at 10uM
Cc1occc1C(=O)NC(C)c1ccc2c(c1)OCO2 (stereo not drawn) | 2.61%
CC(NS(=O)(=O)c1ccc2c(c1)C(C)(C)C(=O)N2C)c1ccccc1 (stereo not drawn) | -17.1%
Cc1cccc(C(=O)/C=C2/c3ccccc3CC(C)(C)N2C)c1 | -10.6%
Cc1cc(NC(=O)NN2CCOCC2)nn1-c1c(Cl)cccc1Cl | 17.9%
CC(C)C(=O)N1CCN(c2cc(N3CCN(C)CC3)c(F)cc2[N+](=O)[O-])CC1 | -18.4%
Cl.O=C(CCCN1CCC(c2ccccc2)C1)c1ccc2c(c1)OCCO2 (stereo not drawn) | -70.3%
Cc1cccc(NC(=O)Cc2ccc(-c3ccccc3)cc2)n1 | 9.47%
COc1ccc(N2CCN(C(=O)c3ccccc3NS(=O)(=O)c3ccccc3)CC2)cc1 | -5.35%
CC1(c2nnc(-c3ccccc3)o2)CC(c2cccnc2)=NO1 (stereo not drawn) | 10.5%
O=c1c2ccccc2cnn1Cc1n[nH]c(=S)n1C1CC2CCC1C2 (stereo not drawn) | 8.9%
O=C(NC1CCCCC1)c1cccc(Cn2cc(Cl)cn2)c1 | 0.803%
CCc1ccc(NC(=S)NC2CC3CCCC(C2)N3Cc2cccs2)cc1 (stereo not drawn) | -20.4%
COc1ccc(OC)c(C(=O)CSc2nc3ccccc3n2CC(=O)NC(C)(C)C)c1 | 19.3%
Cc1cccc(CCN2C(Nc3ccccc3)=NC[C@@H]2CC(C)C)c1 | -67.5%
COc1ccc(Cc2nc(-c3ccc(NC(=O)c4cccnc4)cc3)no2)cc1 | 21.2%
O=C(c1ccc([N+](=O)[O-])cc1)N1CCc2ccccc21 | -8.31%
CCCOC(=O)CCCC[C@H]1SC[C@@H](NC(=O)OC)[C@H]1NC(=O)OC | -3.47%
CC(C)C[C@H]1CN=C(N(C)C)N1CC1CCCC1 | 0.21%
CC(Sc1n[nH]c(N)n1)C(=O)Nc1ccccc1-c1ccccc1 (stereo not drawn) | 14.8%
CC1(C)CC(=O)C=C(c2ccc3ccccc3c2)C1 | -3.37%
COc1ccccc1OCCCCN1CCCCC1 | -1.89%
Cc1csc(NC(=O)c2ccccc2[N+](=O)[O-])n1 | 2.69%

Compound | hERG current change (%, negative = inhibition) at 10uM
CC12CCC(=O)N1C(C(=O)Nc1cc(Cl)ccc1N1CCOCC1)CS2 (stereo not drawn) | -41.5%
CCc1noc(C)c1C(=O)NNC(=O)COc1ccc(C)c(C)c1 | 5.47%
CN(Cc1ccc(F)cc1)C(=O)c1cc(COc2ccc(-n3cncn3)cc2)on1 | -78.3%
COc1ccc(COC(=O)NNC(=O)c2ccccc2Cl)cc1 | -3.85%
Cc1ccc(C)c(N2CCN(CCCNC(=O)Cn3cc4c(n3)CCC(C)C4)CC2)c1 (stereo not drawn) | -63.4%
COc1cccc(CNCc2ccc(SC)cc2)c1OC | -27.9%
O=C(O)CCC(=O)c1ccc2c(c1)OCCCO2 | 12.4%
Cc1ccc(N2CN=C(c3ccccc3)NC2=S)cc1 | -20.4%
Cn1cnnc1SC(C(=O)Nc1cc(Cl)cc(Cl)c1)c1ccccc1 (stereo not drawn) | 20.9%
CCOC(=O)c1ccc(NC(=S)NC2CC(C)(C)NC(C)(C)C2)cc1 | -3.4%
CCOc1c(C)cc(S(=O)(=O)NCc2ccccn2)c(C)c1C | 19.7%
O=C(N/N=C/c1ccco1)c1[nH]ncc1Br | 24.3%
O=C(NCCNc1ccc([N+](=O)[O-])cc1)c1ccccc1F | -42.8%
COCCCNC(=O)C(=O)N/N=C/c1ccc(OCC(=O)Nc2cccc(Cl)c2C)c(OC)c1 | -0.6%
CCc1ccccc1N1CC(C(=O)Nc2cc(S(=O)(=O)N3CCCC3)ccc2Cl)CC1=O (stereo not drawn) | -22.2%
COc1cc(/C=C/C2=CC(C)(C)NC(=S)N2)cc(OC)c1OC | 14.9%
O=C(Nc1ccon1)c1ccc(S(=O)(=O)N2CCOCC2)cc1 | 31.8%
COc1ccccc1N1Cc2ccc(OC)c(OC)c2C1=O | 12.1%
Nc1nc(-c2ccc(C(=O)O)cc2)cs1 | 14.3%
CC(C)[C@H]1C(=O)Nc2ccccc2N1C(=O)N[C@@H](Cc1ccccc1)C(=O)N[C@H](Cc1ccccc1)C(=O)O | 1.06%
Cc1ccn(CCNC(=O)C2CCC(=O)N(CCc3ccc(Cl)cc3)C2)n1 (stereo not drawn) | -55.3%
CCN(CC)S(=O)(=O)c1ccc(OC)c(NC(=O)c2cccc(C)c2[N+](=O)[O-])c1 | -14.5%

Compound | hERG current change (%, negative = inhibition) at 10uM
O=[N+]([O-])c1ccc2nc(CN3CCCCC3)[nH]c2c1 | -15%
COc1ccc(-c2cc(C(=O)Nc3cc(OC)cc(C(=O)Nc4cccc(C(F)(F)F)c4)c3)[nH]n2)cc1 | -3.45%
COCc1ccc(CN2CCCC(CO)(Cc3cccc(OC)c3)C2)o1 (stereo not drawn) | -26.2%
COc1ccc(C(=O)Nc2ccc(C(=O)c3ccccc3)cc2)cc1 | 22.9%
COc1cccc(CNC(=O)CN2C(=O)COc3ccc(S(=O)(=O)N4CCCCCC4)cc32)c1 | 24.8%
O=C(NCCN1CCOCC1)Nc1ccc(Cl)cc1 | 1.69%
CCOC(=O)CNC(=O)C1c2cc(OC)c(OC)cc2C(=O)N(C)C1c1ccccc1F (stereo not drawn) | -2.8%
CCOC(=O)c1cc(-c2cc3ccccc3o2)n[nH]1 | 12.3%
COc1ccc2nc(NC(=O)C(NS(=O)(=O)c3cccc4nsnc34)C(C)C)sc2c1 (stereo not drawn) | 10.4%
CCOC(=O)C1CCC/C1=N\NC(=O)CN(c1cc(OC)ccc1OC)S(=O)(=O)c1ccccc1 (stereo not drawn) | -22.9%
COc1ccc(CCNC(=O)CC2(CC3=NS(=O)(=O)c4ccccc4N3)CCCC2)cc1OC | -14.4%
Cc1cccc(NC(=O)NC2CCCCCCC2)c1C | 14.1%
CC(/C=N\NC(=O)Cn1c(C)nc2ccccc21)=C\c1ccccc1 | 17.6%
Clc1ccc(COn2c(-c3ccc(Cl)cc3Cl)nc3ncccc32)cc1 | -18.8%
COCCN(C(=O)c1ccco1)c1nnc(-c2ccc(OC)cc2)s1 | -14.8%
CCCCOc1ccc(C(=O)NN2C(=O)NC3(CCCCC3)C2=O)cc1OC | 8.93%
CCC(=O)N1CCc2cc(Br)cc(S(=O)(=O)N(C)c3ccc(OC)cc3OC)c21 | 3.29%
Cc1cc2cc(C(c3nnnn3C3CCCC3)N(Cc3cccnc3)Cc3ccco3)c(=O)[nH]c2cc1C (stereo not drawn) | -24.3%
COc1ccccc1NC(=O)CCNS(=O)(=O)c1ccc2[nH]c(=O)oc2c1 | 7.64%
COc1cccc(CCc2nnc(CCC(=O)N(C)C3CC(C)(C)NC(C)(C)C3)o2)c1 | 13.4%
Cn1c(CN2CCCC2)nc2cc(NC(=O)c3ccc(Cl)cc3)ccc21 | -82%
CN(C(=O)Cc1c(C(=O)O)n(C)c2ccccc12)c1ccc(F)cc1 | 19.8%

Compound | hERG current change (%, negative = inhibition) at 10uM
CN(C)c1ccc(/C=N/NC(=O)CCc2nc3ccccc3[nH]2)cc1 | 10.8%
C/C(=C\c1ccccc1)C(=O)Nc1ccc(Cl)cn1 | -9.54%
CN(C)c1ccc(C(=O)Nc2nc3c(s2)CCCC3)cc1 | -3.02%
O=C(c1cc[n+]([O-])cc1)N1CCc2c([nH]c3ccccc23)C1c1ccccc1Cl (stereo not drawn) | -13.8%
CC(NC(=O)CCNS(=O)(=O)c1ccc2c(c1)c(=O)n(C)c(=O)n2C)c1ccccc1 (stereo not drawn) | -0.52%
CC1CCN(S(=O)(=O)c2ccc(NC(=O)CN3CCN(C)CC3)cc2)CC1 | -16%
O=C(O)C1CCN(S(=O)(=O)c2cccnc2)CC1 | 10.5%
O=C(NC1CCCC1)C1CCN(c2nccs2)CC1 | 6.3%
CCOCCn1c(SCc2ccc(F)cc2)nc2c1c(=O)[nH]c(=O)n2C | -19.5%
COc1ccc(Nc2oc(-c3ccco3)nc2S(=O)(=O)c2ccc(F)cc2)cc1 | -9.96%
O=C(Nc1cccc(O)c1)c1ccc([N+](=O)[O-])cc1Cl | -10.2%
COc1cc(Cl)c(C)cc1NC(=O)Cn1c(NCCO)nc2ccccc21 | -6.08%
COc1cccc(/C=N/N2C(=O)CSC2=S)c1O | 15.4%
COc1cc(/C=C/[N+](=O)[O-])ccc1OC(=O)/C=C/c1ccc(F)cc1 | 20.8%
Cc1ccc(-c2nn(-c3cc(N4CCNCC4)ccc3[N+](=O)[O-])c(=O)c3ccccc23)cc1 | -7.46%
CC(OC(=O)c1ccccc1NS(=O)(=O)c1cccc(N)c1)C(=O)N(C)Cc1ccccc1 (stereo not drawn) | -7.88%
COc1ccc(-c2[nH]ncc2CN2CCN(c3ccccn3)CC2)c(OC)c1 | -31.5%
COc1ccc(CN(C)CC(=O)NC(C)c2ccccc2)c(OC)c1 (stereo not drawn) | -13.8%
COc1ccccc1-c1cc(C(F)(F)F)nc(N2CCCCC2)n1 | -1.99%
Cn1ncc2c(Nc3cccc([N+](=O)[O-])c3)ncnc21 | 7.09%
Cc1ccc(C(=O)Nc2cccc(C(F)(F)F)c2)cc1Nc1ccccn1 | -67.4%
